# Measured values as given in PubChem BioAssay AID504466 (National Center for Advancing Translational Sciences (NCATS), 2011).
# The campaign covered roughly 330,000 compounds. About 4,200 (1.3%) were called active. The shares of active, inactive and inconclusive entries below differ from those in the screen. The call rests on the fitted dose curve; in most records, active means well fitted activation curve with a large enough effect; inconclusive means small, poorly fitted or top-dose-only effect; inactive means no such curve, though single readings can be large or run the other way. Where the call is inconclusive, the potency comes from a doubtful curve fit.
# Test: qHTS screen for small molecules that induce genotoxicity in human embryonic kidney (HEK293T) cells expressing luciferase-tagged ELG1; further: nearly all actives have a fitted effect of over 60% in size
# Details: HEK293T ELG1-luciferase reporter, luminescence, 16 h; series mostly up to 46 µM
# Summary of the method: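 HEK293T cells expressing luciferase-tagged ELG1 were exposed to compound or DMSO vehicle for 16 hr at 37 °C and 5% CO2. Luciferase activity was then measured with ONE-Glo after 30 min at room temperature.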
# Potency means the concentration at half of the fitted maximal effect; tags describe the fitted curve by direction and shape.
row,Structure (SMILES),Potency
1,CN(C)Cc1cccc([N+](=O)[O-])c1O,inactive
2,CCOc1ccc(-c2ccc3nnc(SCC(=O)NCC4CCCO4)n3n2)cc1 (centres undefined),inactive
3,CCSc1ncccc1-c1nc2ccccc2[nH]1,"inconclusive: 14.6 µM [activator, partial curve, poor fit]"
4,COc1ccc(-c2cc3ccc(O)cc3oc2=O)cc1OC,"inconclusive: 14.6 µM [activator, partial curve, poor fit]"
5,COCCCNCCCCOc1ccc(OCc2ccccc2)cc1,"inconclusive: 20.6 µM [activator, single point]"
6,CC(=NC1CC1)c1c(-c2ccccc2)[nH]n(-c2nc3ccccc3s2)c1=O,"inconclusive: 18.4 µM [activator, partial curve, poor fit]"
7,Cn1c(=O)c2c([nH]c(=S)n2Cc2ccc(Cl)cc2)n(C)c1=O,inactive
8,CCOC(=O)c1c(C)[nH]c(C)c1S(=O)(=O)N(C)CC(=O)NCc1cccc(Br)c1,inactive
9,O=C(Cn1c(C(F)(F)F)nc2ccccc21)N/N=C/c1ccco1,inactive
10,CCOC(=O)C(=O)N1CCC(C(=O)OCC)CC1,inactive
11,Cc1cc(C)cc(NS(=O)(=O)c2ccc3oc(=O)ccc3c2)c1,inactive
12,CC(=O)c1c(C)[nH]c(C(=O)Nc2ccc(Cl)c(S(=O)(=O)N(C)C)c2)c1C,active: 18.3 µM
13,COc1ccccc1C(=O)NNC(=O)c1ccc(F)cc1,"inconclusive: 16.4 µM [activator, partial curve, poor fit]"
14,O=C(Nc1ccc2c(c1)OCO2)c1ccc(CN2CCOCC2)cc1,active: 18.4 µM
15,COc1ccccc1OCc1nc2ccccc2[nH]1,"inconclusive: 5.17 µM [activator, partial curve]"
16,COc1ccc(NC(=S)N/N=C2\CC(C)(C)Oc3ccc(OC)cc32)cc1,inactive
17,COc1ccc(NC(=O)CC(C)NCCCN2CCCC2=O)cc1 (centres undefined),inactive
18,COc1ccc(C(=O)Nc2cnc3ccccn3c2=O)cc1,"inconclusive: 8.2 µM [activator, partial curve]"
19,CCCOc1ccc(C(=O)Nc2ccc(S(=O)(=O)NC3=NCCCCC3)cc2)cc1,"inconclusive: 25.9 µM [activator, partial curve, poor fit]"
20,O=C(Nc1ccccc1)Nc1ccccc1C(=O)NCc1ccccc1,inactive
21,CCOc1ccccc1N1CCN(S(=O)(=O)c2cc(C)ccc2OC)CC1,"inconclusive: 18.3 µM [activator, single point]"
22,COc1ccc(-c2csc3ncnc(N4CCN(S(=O)(=O)c5cccc(C(F)(F)F)c5)CC4)c23)cc1,"inconclusive: 23.1 µM [activator, single point]"
23,O=C(CSc1nnc(-c2ccccn2)o1)Nc1ccccc1,"inconclusive: 5.17 µM [activator, full curve, poor fit]"
24,COc1cccc(NC(=O)C2CCC(CNC(=O)[C@@H]3Cc4ccccc4CN3)CC2)c1 (some centres undefined),inactive
25,CCOC(=O)c1sc2nc(CC(=O)OC)nc(NCc3ccco3)c2c1C,inactive

row,Structure (SMILES),Potency
1,O=C(CN1C(=O)/C(=C/c2ccccc2F)SC1=S)NC1C=CS(=O)(=O)C1 (centres undefined),inactive
2,O=C(CNC(=O)c1ccc2c(c1)OCCO2)N/N=C/c1ccc([N+](=O)[O-])cc1,"inconclusive: 29.1 µM [activator, partial curve, poor fit]"
3,OCCOc1ccc(C2=NCCO2)cc1,"inconclusive: 16.4 µM [activator, single point]"
4,Cc1c(NC(=O)CN2CCN(c3ccc(O)cc3)CC2)c(=O)n(-c2ccccc2)n1C,inactive
5,Cc1ccc(Cl)c(N/C=C/C(=O)c2ccccc2)c1,active: 9.2 µM
6,CC(CNC(=O)COC(=O)c1cccnc1Cl)c1ccccc1 (centres undefined),inactive
7,O=C(Nc1nc2ccc(F)cc2s1)C1CCCO1 (centres undefined),"inconclusive: 0.58 µM [activator, full curve, poor fit]"
8,O=C(N/N=C/c1cccc(O)c1)c1ccc2c(c1)OCCO2,"inconclusive: 4.11 µM [activator, single point]"
9,COc1ccccc1NC(=O)Nc1nc2ccc(S(N)(=O)=O)cc2s1,"inconclusive: 35.5 µM [activator, partial curve, poor fit]"
10,CCc1nnc(NC(=O)CSc2nnc(COc3cccc(C)c3)o2)s1,inactive
11,CCCC(=O)n1nc(-c2ccc(C)cc2)nc1NCc1ccco1,"inconclusive: 18.3 µM [activator, partial curve, poor fit]"
12,COC(=O)c1ccc(C(=O)NC(=S)Nc2ccc3nc(SC)sc3c2)cc1,"inconclusive: 20.6 µM [activator, single point]"
13,O=C(NC12CC3CC(CC(C3)C1)C2)c1ccc(-c2cccc(Cl)c2)o1,"inconclusive: 3.26 µM [activator, partial curve]"
14,Clc1c(CSc2nc3ccccc3o2)nc2sccn12,active: 5.8 µM
15,Cc1cccc(/C(N)=N/OC(=O)c2ccncc2)c1,"inconclusive: 2.06 µM [activator, full curve]"
16,C/C(=N/NC(=O)c1ccco1)c1ccc(Br)s1,"inconclusive: 18.3 µM [activator, single point]"
17,CCN1CCc2c(sc(NC(=O)C3COc4ccccc4O3)c2C(N)=O)C1 (centres undefined),active: 18.3 µM
18,CCOc1ccc(NC(=O)CN(C)C(=O)c2ccc(=O)[nH]c2)cc1OCC,"inconclusive: 11.6 µM [activator, partial curve]"
19,COc1ccc(C(=O)/C=C/c2ccccc2F)c(OC(=O)c2ccc([N+](=O)[O-])cc2)c1,"inconclusive: 20.6 µM [activator, partial curve, poor fit]"
20,O=C(N/C=C/c1ccco1)NCc1ccccc1,inactive
21,C=CC[C@@H](CC(=O)N(CCO)Cc1ccccc1)C(=O)N[C@H](COC(=O)[C@@H](CC=C)CC(=O)OC(C)(C)C)Cc1c[nH]c2ccccc12,inactive
22,CN=c1scc(C)n1/N=C/c1ccc(O)cc1,active: 3.16 µM
23,O=C(Nc1nc(-c2cccs2)cs1)c1ccco1,active: 10.3 µM
24,O=C(Nc1ccccn1)C(=O)Nc1ccccn1,active: 4.61 µM
